About 4,300 (8.3%) of roughly 52,000 compounds were called active. Rule as the data show it: active = survival mostly below about 52% (no sharp cut-off); inactive = mostly above about 56%. The list shows a part of the results.
system: DeltatarO mutant; experiment: growth inhibition of S. aureus wild type versus tarO mutant, primary screen, teichoic acid synthesis inhibitors, RN4220, OD600 (AID 463173); conditions: OD600, 18 h, active compounds read low, screened at 18.75 µg/mL (by protocol)

SMILES	survival
O=C(CC(C(=O)O)C1CCCO1)Nc1ccc(F)cc1 (stereo unspecified)	inactive: 95%
Cc1ccc(NC(=O)C(Cc2ccccc2)NS(=O)(=O)c2ccc3c(c2)oc(=O)n3C)cc1F (stereo unspecified)	inactive: 83%
O=C(Nc1nc2n(n1)C(c1ccc(F)cc1)C=C(c1ccccc1)N2)c1ccc(Cl)cc1 (stereo unspecified)	inactive: 48%
NC(=O)CSc1oc(-c2ccco2)nc1S(=O)(=O)c1ccc(Cl)cc1	inactive: 70%
Cc1ccc(NC(=O)c2cc3cc(C)ccc3n2C)cc1	inactive: 61%
CCOC(=O)c1ccc(NC(=O)Cn2c(=O)cc(C)c3c(C)nn(-c4cccc(F)c4)c32)cc1	inactive: 69%
COc1ccc(C2CC(=O)C(C=NCC(C)C)=C(O)C2)cc1 (stereo unspecified)	inactive: 81%
CCCc1cnc2c(c1SCC(=O)N1CCC(C)CC1)c(=O)n(C)c(=O)n2C	inactive: 96%
O=C(NCCc1ccccc1)c1sc2ncccc2c1-n1cccc1	inactive: 94%
CCC1CCCCN1C(=O)Cn1c(=O)oc2cc(S(=O)(=O)N3CCCCC3)ccc21 (stereo unspecified)	inactive: 80%
Cc1nn(Cc2ccccc2Cl)c(C)c1NC(=O)c1cc(C(C)C)on1	inactive: 60%
Cc1ccc(C(=O)c2oc3ccccc3c2NC(=O)Cc2coc3cc(C)ccc23)cc1	inactive: 74%
COc1ccc(CCNC(=O)Cn2c(=O)n(-c3ccc(C)c(C)c3)c(=O)c3c(C)c(C)sc32)cc1OC	inactive: 64%
CCc1ccccc1NC(=O)Cn1ccn(-c2cc(C)cc(C)c2)c(=O)c1=O	inactive: 67%
Clc1cccc(CSc2nncn3c2cc2sccc23)c1	inactive: 57%
COc1ccc(OC)c(C(=O)c2c(N)c(-c3nc(-c4ccc(C)c(C)c4)cs3)c3ccccn23)c1	inactive: 105%
O=C(NCCCO)c1cc2sc3ccccc3c2s1	inactive: 83%
Cc1ccccc1-c1nc(CS(=O)CC(=O)N2CCN(c3cc(Cl)ccc3C)CC2)c(C)o1 (stereo unspecified)	active: 30%
CS(=O)(=O)N1CCN(c2ncnc3c(-c4ccc(Cl)cc4)nsc23)CC1	inactive: 99%
CCC(=O)N1c2ccccc2CC1C(=O)NCc1cccc(C)c1 (stereo unspecified)	inactive: 73%
O=C1/C(=C/c2ccccc2)Nc2ccccc21	inactive: 112%
CCCCC(=O)Nc1cccc(-c2nc3ncccc3o2)c1C	inactive: 80%
CCN(CC)CCCNC(=O)Cn1nc(C)n2c(cc3sccc32)c1=O	inactive: 95%

SMILES	survival
Cc1ccc(OCC(=O)Nc2ccc(OCc3cc(=O)n4cccc(C)c4n3)cc2)cc1C	active: -5%
COc1ccc(CCNC(=O)Cc2c(C)c3c(cc(C)c4c(C)coc43)oc2=O)cc1OC	inactive: 72%
COc1ccc(CC(=O)NC2CC(=O)N(c3cccc(F)c3)C2)cc1 (stereo unspecified)	inactive: 94%
Cc1nn(C(C)C(=O)NC2CCCCC2)c(=O)c2c1sc1ccccc12 (stereo unspecified)	inactive: 58%
COc1ccc(CCNC(=O)c2ccc3c(c2)CCN3S(C)(=O)=O)cc1	inactive: 82%
CCN(C(=O)C(=O)Nc1ccc2nc3n(c(=O)c2c1)CCCCC3)c1ccc(F)cc1	inactive: 94%
Cc1ccc2sc(N(Cc3cccnc3)C(=O)CCOc3ccccc3)nc2c1C	inactive: 79%
COc1cc(C(=O)CC2(O)C(=O)N(Cc3ccccc3Cl)c3ccccc32)cc(OC)c1OC (stereo unspecified)	inactive: 71%
Cc1c(C(=O)N(Cc2ccc(N(C)C)cc2)C2CCS(=O)(=O)C2)oc2ccccc12 (stereo unspecified)	active: 42%
O=C(c1ccc2c(c1)N(Cc1ccccc1)C(=O)c1ccccc1S2(=O)=O)N1CCN(c2ccccc2)CC1	inactive: 119%
COc1ccc(OC)c(C2NC(=O)NC(C)=C2C(=O)Nc2cc(C)cc(C)c2)c1 (stereo unspecified)	inactive: 47%
CCOC(=O)C1(C)C=C(Nc2ccc(Br)cc2)C(=O)N1c1ccccc1 (stereo unspecified)	inactive: 65%
CC(C)c1cc(C(=O)O)on1	inactive: 102%
CS(=O)(=O)NCc1ccc2c(c1)OCO2	inactive: 92%
Cc1ccc(NC(=O)CSc2nc(C)c(Cc3ccccc3)c(=O)[nH]2)cc1C	inactive: 84%
CC(C)Oc1ccc(C(=O)Nc2ccc3c(c2)CCCN3C(=O)c2cccs2)cc1	inactive: 58%
CCC(Sc1nc2ccccc2c2nc(CCn3cncc3C)nn12)C(=O)Nc1cccc(OC)c1 (stereo unspecified)	inactive: 89%
CCC1CCCCN1CCCNC(=O)CN1C(=O)c2cccnc2Oc2ccc(Cl)cc21 (stereo unspecified)	inactive: 91%
O=C(Cn1cc(SCc2ccc(C(F)(F)F)cc2)c2ccccc21)N1CCCCCC1	inactive: 79%
COc1ccc(Cn2c(CNC(=O)c3ccc(N(C)C)cc3)nc3cccnc32)cc1	inactive: 81%
O=C(Nc1c(C(=O)N2CCN(c3ccc(F)cc3)CC2)oc2ccccc12)c1c(F)cccc1F	inactive: 95%
Cc1nnc(NC(=O)CSc2nc3c([nH]c4ccccc43)c(=O)n2-c2ccccc2)s1	inactive: 88%
CCc1ccc2c(c1)c1nnc(SCC(=O)c3ccc(OC)cc3)nc1n2C	inactive: 88%

SMILES	survival
COc1ccc(C2CC(=O)c3cc(-c4nc(-c5cccc([N+](=O)[O-])c5)cs4)c(=O)n(-c4ccc(C)c(C)c4)c3C2)cc1 (stereo unspecified)	inactive: 156%
CCCN1C(=O)c2[nH]nc(-c3ccccc3O)c2C1c1ccc(OCc2ccccc2)c(OCC)c1 (stereo unspecified)	active: 40%
Cc1ccc(Cl)cc1NC(=O)CN1C(=O)c2cccc3cccc1c23	inactive: 63%
COc1ccc(C)c2sc(N(Cc3cccnc3)C(C)=O)nc12	inactive: 80%
CCc1ccc(NC(=O)C2CCC(CNS(=O)(=O)c3ccc4c(c3)CC(C)N4C(C)=O)CC2)cc1 (stereo unspecified)	inactive: 87%
COc1ccc(-c2nc3ccccc3s2)cc1NC(=O)COc1ccccc1C	inactive: 142%
COc1ccccc1OCCn1c(NC(=O)c2ccc(Cl)cc2)nc2ccccc21	active: 45%
C=CCN(CC=C)C(=O)C1CCN(Cc2cc(Br)c(O)c(OC)c2)CC1	inactive: 100%
C=CCNc1nc(-c2ccccc2)cs1	inactive: 97%
Fc1ccc(Nc2nc3ccccc3c3nncn23)c(Cl)c1	inactive: 99%
Cc1cc(C)c2nc(N3CCCC(C(=O)NCc4cccc(Br)c4)C3)sc2c1 (stereo unspecified)	inactive: 66%
Cc1ccc2oc(=O)c3cc(C(=O)Nc4ccc(F)cc4F)sc3c2c1	inactive: 79%
COc1ccc(CCNC(=O)c2ccc(Cn3c(=O)c4ccccc4n(Cc4cc(C)ccc4C)c3=O)cc2)cc1OC	inactive: 75%
Cc1ccc(NC(=O)c2oc3ccc(S(=O)(=O)N4CCCCCC4)cc3c2C)cc1Cl	inactive: 86%
CCOC(=O)c1ccc(N2CCN(c3ccccc3F)CC2)c(NC(=O)Nc2ccc(Cl)c(Cl)c2)c1	inactive: 65%
CC(C)CSc1nnc(-c2ccccc2)c(-c2ccccc2)n1	active: -8%
O=C(Nc1cccc(Cl)c1)c1cc(-c2ccc3c(c2)OCCO3)on1	inactive: 103%
Cc1cccc(N(C)C(CNS(=O)(=O)c2ccccc2)c2ccccc2)c1 (stereo unspecified)	inactive: 100%
Cc1cccc(C(=O)Nc2cccc(OCc3cc(=O)n4cccc(C)c4n3)c2)c1	inactive: 92%
Cc1ccc(C)c(Nc2nc(-c3ccccc3)c3cc(Br)ccc3n2)c1	active: 43%
COC(=O)c1cccc(Cn2nnc3sc4c(c3c2=O)CCC(C(C)(C)C)C4)c1 (stereo unspecified)	inactive: 68%
O=C(COc1ccccc1)NCCc1csc(-c2cccc(F)c2)n1	inactive: 78%
Cc1ccc[n+](Cc2cnc(C)nc2N)c1	inactive: 83%

SMILES	survival
COc1ccc(CCNC(=O)CCCCn2c(=O)c3ccccc3n(CC(=O)Nc3ccc(C)cc3C)c2=O)cc1OC	inactive: 96%
O=C(CSc1ncn[nH]1)n1c2ccccc2c2ccccc21	inactive: 70%
O=C(c1cccs1)N1CCCn2c1nc1ccccc12	inactive: 90%
N#Cc1cccc(NC(=O)Cn2nc(Cc3ccncc3)c3ccccc3c2=O)c1	inactive: 123%
CCN1C(=O)C(Cc2nc3ccccc3c(=O)n2-c2ccc(OC)cc2)c2cc(C)ccc21 (stereo unspecified)	inactive: 81%
Cc1cc(C)n(C2CC(=O)N(N(C)C)C2=O)n1 (stereo unspecified)	inactive: 92%
Cn1nnnc1SCCNCc1ccc(OCc2ccccc2Cl)cc1	inactive: 102%
CC(NC(=O)c1ccc(NC(=O)c2nsc3ccccc23)cc1)c1ccccc1 (stereo unspecified)	inactive: 84%
Cc1ccc(N(C)S(=O)(=O)c2ccc3[nH]c4c(c3c2)CCCC4)cc1	inactive: 67%
COc1ccccc1N1CCN(CC(=O)N2CCCC2)CC1	inactive: 83%
O=C(COc1ccccc1)NCc1ccc2c(c1)CCN2C(=O)c1ccccc1	inactive: 76%
N#CN=C(N)CSc1nc(-c2ccccc2)cc(-c2ccccc2)c1C#N	inactive: 56%
Cc1cc(Sc2ccc(Cl)cc2)nc2ccccc12	inactive: 45%
O=C(CSc1ccccc1)NCc1ccc2c(c1)CCN2C(=O)c1ccc(Cl)cc1	inactive: 86%
CC(C)(C)OC(=O)N1CCC(c2c(C(=O)NC3CCCCC3)cnn2-c2cccc(F)c2)CC1	inactive: 128%
CCOC(=O)c1ccc(NC(=O)CC2C(=O)N(c3ccc(C)cc3)C(=O)N2C2CCCCC2)cc1 (stereo unspecified)	inactive: 88%
Cc1cc(C(F)(F)F)nn1-c1nc(-c2ccccc2)cc(C(F)(F)F)n1	active: 17%
Cc1cc(=O)n(CC(=O)Nc2ccc([N+](=O)[O-])cc2)c(-n2nc(C)cc2C)n1	inactive: 72%
COc1ccc(CCN2C(=O)c3[nH]nc(-c4ccccc4O)c3C2c2cccc(OC)c2)cc1 (stereo unspecified)	inactive: 66%
Cc1ccccc1NC(=O)Cn1c(=O)n(CCc2ccccc2)c(=O)c2sc3ccccc3c21	inactive: 76%
Cc1[nH]c2ccccc2c1C(c1ccccc1)c1cccs1 (stereo unspecified)	active: 7%
Clc1ccc(OCc2nc3ccccc3[nH]2)cc1	inactive: 104%

Source: PubChem BioAssay AID463173 (ICCB-Longwood Screening Facility, Harvard Medical School, 2010)
